Among the data in PMC12820563, “FoxP3 forms a head-to-head dimer in vivo and stabilizes its multimerization on adjacent microsatellites” are binding signal values, retold here.

This is one part of the list.

The target in the experiment is T1, MBP-FoxP1dN (Mus musculus, UniProt P58462 326-579).
T1 sequence: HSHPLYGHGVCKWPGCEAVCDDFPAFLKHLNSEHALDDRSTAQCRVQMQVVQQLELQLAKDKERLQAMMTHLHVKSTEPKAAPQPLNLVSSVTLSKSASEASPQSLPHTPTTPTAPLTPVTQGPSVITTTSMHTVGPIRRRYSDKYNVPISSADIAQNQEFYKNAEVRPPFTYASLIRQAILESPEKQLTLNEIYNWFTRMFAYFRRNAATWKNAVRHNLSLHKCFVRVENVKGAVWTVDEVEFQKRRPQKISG
As to the kind of experiment: PD-seq (MBP pull-down with sequencing); 20 mM Tris-HCl pH 7.5, 100 mM NaCl, 1.5 mM MgCl2, 0.4 uM protein, 0.1 uM dsDNA library, 30 min, room temperature, amylose pull-down; high values mean tight binding. The settings on record: protein: recombinant; tags: His6-MBP; chain copies: 2; dsDNA, one strand shown. In short, it runs like this: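 Mouse FoxP3 or FoxP1 fragment lacking the N-terminus, His6-MBP-tagged and expressed in E. coli, was incubated at 0.4 µM with 0.1 µM Klenow-filled degenerate double-stranded DNA library for 30 min at room temperature in Tris pH 7.5 buffer with NaCl and MgCl2. Complexes captured on amylose resin were washed three times and their DNA sequenced on Illumina. Binding is reads-per-million enrichment of pull-down over input, replicates pooled.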
In the case of “GATGATTGTTCTCCCAGCTGATGAATTTCGGCCGTCGAGTAAACAAATTTTCCTAATCTTTCTGTTCAAGCGCCATCTAC”, the binding signal is 0.786 RPM ratio (pull-down/input).

In the case of “GATGATTGTTCTCCCAGCTGATGAATTGCAAGGGTCGAGTAAACAAATTTTCCTAATCTTTCTGTTCAAGCGCCATCTAC”, the binding signal is 1.02 RPM ratio (pull-down/input).

On to “GATGATTGTTCTCCCAGCTGATGAATTATTCCTATCGAGTAAACAAATTTTCCTAATCTTTCTGTTCAAGCGCCATCTAC”, for which the binding signal was 1.08 RPM ratio (pull-down/input).

With “GATGATTGTTCTCCCAGCTGATGAATTACAATAATCGAGTAAACAAATTTTCCTAATCTTTCTGTTCAAGCGCCATCTAC”, the binding signal is 1.83 RPM ratio (pull-down/input).

As to “GATGATTGTTCTCCCAGCTGATGAATTATTCGGCTCGAGTAAACAAATTTTCCTAATCTTTCTGTTCAAGCGCCATCTAC”, the binding signal is 0.904 RPM ratio (pull-down/input).

In the case of “GATGATTGTTCTCCCAGCTGATGAATTGTTAGAGTCGAGTAAACAAATTTTCCTAATCTTTCTGTTCAAGCGCCATCTAC”, the binding signal was 1.05 RPM ratio (pull-down/input).

Consider “GATGATTGTTCTCCCAGCTGATGAATTTTTGCCATCGAGTAAACAAATTTTCCTAATCTTTCTGTTCAAGCGCCATCTAC”, for which the binding signal is 1.03 RPM ratio (pull-down/input).

On to “GATGATTGTTCTCCCAGCTGATGAATTTCGGGTGTCGAGTAAACAAATTTTCCTAATCTTTCTGTTCAAGCGCCATCTAC”, for which the binding signal is 0.819 RPM ratio (pull-down/input).

With “GATGATTGTTCTCCCAGCTGATGAATTTGCCCCTTCGAGTAAACAAATTTTCCTAATCTTTCTGTTCAAGCGCCATCTAC”, the binding signal was 0.891 RPM ratio (pull-down/input).

Take “GATGATTGTTCTCCCAGCTGATGAATTACAGTCATCGAGTAAACAAATTTTCCTAATCTTTCTGTTCAAGCGCCATCTAC”: the binding signal was 1.25 RPM ratio (pull-down/input).

On to “GATGATTGTTCTCCCAGCTGATGAATTTTGAACATCGAGTAAACAAATTTTCCTAATCTTTCTGTTCAAGCGCCATCTAC”, for which the binding signal is 1.1 RPM ratio (pull-down/input).

Take “GATGATTGTTCTCCCAGCTGATGAATTAGCTGTCTCGAGTAAACAAATTTTCCTAATCTTTCTGTTCAAGCGCCATCTAC”: the binding signal was 0.931 RPM ratio (pull-down/input).

With “GATGATTGTTCTCCCAGCTGATGAATTGGTGTACTCGAGTAAACAAATTTTCCTAATCTTTCTGTTCAAGCGCCATCTAC”, the binding signal is 1.11 RPM ratio (pull-down/input).

With “GATGATTGTTCTCCCAGCTGATGAATTCGTGAGCTCGAGTAAACAAATTTTCCTAATCTTTCTGTTCAAGCGCCATCTAC”, the binding signal was 0.781 RPM ratio (pull-down/input).

In the case of “GATGATTGTTCTCCCAGCTGATGAATTGCTCCTTTCGAGTAAACAAATTTTCCTAATCTTTCTGTTCAAGCGCCATCTAC”, the binding signal is 1.02 RPM ratio (pull-down/input).

For the sequence “GATGATTGTTCTCCCAGCTGATGAATTCCTGGCATCGAGTAAACAAATTTTCCTAATCTTTCTGTTCAAGCGCCATCTAC”, the binding signal was 0.931 RPM ratio (pull-down/input).

With “GATGATTGTTCTCCCAGCTGATGAATTATGTCCGTCGAGTAAACAAATTTTCCTAATCTTTCTGTTCAAGCGCCATCTAC”, the binding signal was 0.963 RPM ratio (pull-down/input).

As to “GATGATTGTTCTCCCAGCTGATGAATTAGGTCGGTCGAGTAAACAAATTTTCCTAATCTTTCTGTTCAAGCGCCATCTAC”, the binding signal was 0.815 RPM ratio (pull-down/input).

Turning to “GATGATTGTTCTCCCAGCTGATGAATTGTTTAAGTCGAGTAAACAAATTTTCCTAATCTTTCTGTTCAAGCGCCATCTAC”, the binding signal was 1.26 RPM ratio (pull-down/input).

As to “GATGATTGTTCTCCCAGCTGATGAATTGTCGACATCGAGTAAACAAATTTTCCTAATCTTTCTGTTCAAGCGCCATCTAC”, the binding signal was 1.1 RPM ratio (pull-down/input).

Consider “GATGATTGTTCTCCCAGCTGATGAATTCCAGTTTTCGAGTAAACAAATTTTCCTAATCTTTCTGTTCAAGCGCCATCTAC”, for which the binding signal is 1.01 RPM ratio (pull-down/input).

As for “GATGATTGTTCTCCCAGCTGATGAATTCCGCGTCTCGAGTAAACAAATTTTCCTAATCTTTCTGTTCAAGCGCCATCTAC”, the binding signal is 0.89 RPM ratio (pull-down/input).

“GATGATTGTTCTCCCAGCTGATGAATTCCAAGCTTCGAGTAAACAAATTTTCCTAATCTTTCTGTTCAAGCGCCATCTAC”: the binding signal was 0.778 RPM ratio (pull-down/input).

On to “GATGATTGTTCTCCCAGCTGATGAATTTTGCCTCTCGAGTAAACAAATTTTCCTAATCTTTCTGTTCAAGCGCCATCTAC”, for which the binding signal was 0.903 RPM ratio (pull-down/input).

Consider “GATGATTGTTCTCCCAGCTGATGAATTCGCCCCATCGAGTAAACAAATTTTCCTAATCTTTCTGTTCAAGCGCCATCTAC”, for which the binding signal was 0.897 RPM ratio (pull-down/input).

As for “GATGATTGTTCTCCCAGCTGATGAATTTATATCGTCGAGTAAACAAATTTTCCTAATCTTTCTGTTCAAGCGCCATCTAC”, the binding signal was 1.05 RPM ratio (pull-down/input).

On to “GATGATTGTTCTCCCAGCTGATGAATTCTACCTTTCGAGTAAACAAATTTTCCTAATCTTTCTGTTCAAGCGCCATCTAC”, for which the binding signal is 0.93 RPM ratio (pull-down/input).

As to “GATGATTGTTCTCCCAGCTGATGAATTGCTCCAATCGAGTAAACAAATTTTCCTAATCTTTCTGTTCAAGCGCCATCTAC”, the binding signal was 1.09 RPM ratio (pull-down/input).

As to “GATGATTGTTCTCCCAGCTGATGAATTGGTAGTTTCGAGTAAACAAATTTTCCTAATCTTTCTGTTCAAGCGCCATCTAC”, the binding signal was 1.03 RPM ratio (pull-down/input).

Consider “GATGATTGTTCTCCCAGCTGATGAATTATATGGATCGAGTAAACAAATTTTCCTAATCTTTCTGTTCAAGCGCCATCTAC”, for which the binding signal was 0.917 RPM ratio (pull-down/input).

Regarding “GATGATTGTTCTCCCAGCTGATGAATTGTGAACATCGAGTAAACAAATTTTCCTAATCTTTCTGTTCAAGCGCCATCTAC”, the binding signal is 1.33 RPM ratio (pull-down/input).
